PubChem BioAssay AID1461 (National Center for Advancing Translational Sciences (NCATS), 2008)
In all, about 220,000 compounds went through this assay and about 2,300 (1%) were called active. The inconclusive results got no clear call from the source; some entries with a clear call stand among them for comparison. Calls follow the shape of the dose curve; as a rule, active = well fitted inhibition curve with a large enough effect; inconclusive = small, poorly fitted or top-dose-only effect, or effect the other way; inactive = no such curve, though single readings can be large or run the other way. Potencies of inconclusive entries are left out as doubtful fits.

target: Neuropeptide S receptor (Homo sapiens) (UniProt Q6W5P4); experiment: qHTS Assay for Antagonists of the Neuropeptide S Receptor: cAMP Signal Transduction; conditions: CHO-NPSR cells, cAMP TR-FRET, antagonist mode; series mostly up to 38.3 µM; also: nearly all actives have a fitted effect of over 50% in size
Chain of UniProt Q6W5P4 (Q6W5P4 whole entry, looked up): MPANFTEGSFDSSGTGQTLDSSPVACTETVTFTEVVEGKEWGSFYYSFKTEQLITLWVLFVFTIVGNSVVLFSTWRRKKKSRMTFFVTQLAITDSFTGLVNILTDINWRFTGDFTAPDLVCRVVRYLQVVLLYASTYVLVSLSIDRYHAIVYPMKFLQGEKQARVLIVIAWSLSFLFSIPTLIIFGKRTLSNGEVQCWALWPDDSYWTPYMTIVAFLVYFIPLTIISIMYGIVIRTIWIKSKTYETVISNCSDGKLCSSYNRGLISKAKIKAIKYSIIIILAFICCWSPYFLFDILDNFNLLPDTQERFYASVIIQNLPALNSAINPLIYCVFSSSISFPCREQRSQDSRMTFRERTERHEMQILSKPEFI
Potency is read from the fitted curve at half-maximal effect; tags tell the direction and shape of the fitted curve.

SMILES	Potency
COc1ccccc1NS(=O)(=O)c1cc(NC(=O)c2ccc(Cl)nc2)ccc1Cl	inactive
O=C(c1ccccc1)N1CCN(C2c3cccc4cccc(c34)C2NS(=O)(=O)c2ccccc2)CC1 (stereo unspecified)	inconclusive [inhibitor, single point]
COc1cccc(N=c2oc3cc(O)ccc3cc2C(=O)NCC2CCCO2)c1 (stereo unspecified)	inactive
CN1CCN(C2=Cc3ccccc3Sc3cc(F)c(F)cc32)CC1	inconclusive [inhibitor, single point]
Cc1nnnn1/C(=C\c1ccccc1)C(=O)OCC(=O)N1CC2(C)CC1CC(C)(C)C2 (stereo unspecified)	inconclusive [inhibitor, single point]
N=C1CCCN1CC(=O)c1ccc(Cl)cc1	inactive
Cc1cc(C)c2c(CC(=O)NC(C)C)coc2c1	inactive
CCN1C(=O)/C(=C2\Sc3ccccc3N2CC)OC1=S	inconclusive [inhibitor, single point]
CC(C)N(C(=S)NCc1ccccc1)c1ccccc1	inactive
N/C(Cc1cccs1)=N\OC(=O)COc1ccccc1	inactive
Cc1cc(OCC(=O)Nc2cccc(S(=O)(=O)NC3=NCCCCC3)c2)ccc1Cl	inactive
COC(=O)c1sc2ncn(N)c(=O)c2c1C	inactive
Cc1ccc(C(=O)NC(=S)Nc2ccc(S(=O)(=O)N(C)c3ccccc3)cc2)cc1	inconclusive [inhibitor, single point]
COC(=O)CNC(c1ccccc1)c1cc(C)ccc1NC(=O)CNC(=O)OCc1ccccc1 (stereo unspecified)	inconclusive [inhibitor, single point]
CCN1/C(=C/c2ccc3ccc(C)cc3[n+]2CC)Sc2ccccc21	inconclusive [inhibitor, single point]
Cc1ccc(C(=O)CCC(=O)N2CCN(C(=O)c3ccco3)CC2)cc1	inactive
S=c1nc(C2CC2)n(-c2ccccc2)[nH]1	inactive
CC(C)CN(CC(C)C)C(=O)Cc1coc2ccc3ccccc3c12	inconclusive [inhibitor, partial curve, poor fit]
Cc1c(C(=O)NC(=S)Nc2ccc(NC(=O)c3cccs3)cc2)oc2ccccc12	inconclusive [inhibitor, single point]
CC1CCc2nc(NC(=O)CCSc3ccccc3)sc2C1 (stereo unspecified)	inconclusive [inhibitor, single point]
CCOC(=O)Cc1csc(NC(=O)CSc2nnnn2-c2ccc(CC)cc2)n1	inconclusive [inhibitor, single point]
CCOc1ccc(N(CC(=O)Nc2cccc(F)c2)S(=O)(=O)c2c(C)noc2C)cc1	inactive
Nc1cnccc1C(=O)O	inactive
CCC(C)NC(=O)CCS(=O)(=O)c1ccc(Br)s1 (stereo unspecified)	inactive
O=C(CSc1nc2ccccc2o1)N1c2ccccc2Sc2ccccc21	inconclusive [inhibitor, single point]
Cc1ccc(S(=O)(=O)N2CCN(C(=O)CSc3nc4ccccc4c(=O)[nH]3)CC2)cc1	inconclusive [inhibitor, single point]

SMILES	Potency
CC1=C(C(=O)Nc2cccc(C)c2C)C(c2cccs2)NC(=S)N1 (stereo unspecified)	inactive
CNc1nc2[nH]c(=O)c3c(c2s1)OC(N)=C(C#N)C3c1cccc(F)c1 (stereo unspecified)	inconclusive [inhibitor, single point]
COCCNC(=O)CSc1nc(-c2ccccc2)c(-c2ccccc2)o1	inactive
CC(=O)c1ccc(N2CCN(S(=O)(=O)c3ccccc3)CC2)c(F)c1	inactive
Cc1ccc(-c2nnc(SCC(=O)N3CCCC3)o2)cc1C	inconclusive [inhibitor, single point]
C=CCOC(=O)C1=C(C)Nc2nc3ccccc3n2C1c1ccncc1 (stereo unspecified)	inconclusive [inhibitor, single point]
CCOC(=O)c1c(N)nn(C(=O)C(C)(C)C)c1-c1ccccc1	inconclusive [inhibitor, single point]
Cc1ccc(-n2cc(CN3CCN(Cc4nccn4C)CC3)c(-c3ccc(F)cc3)n2)cc1	inconclusive [activator, single point]
Cc1cc(=O)oc2c1c(C(F)(F)F)nn2-c1ccccc1	inactive
CCCc1[nH][nH]c(=O)c1C(c1ccc(Cl)cc1)C(C#N)C#N (stereo unspecified)	inactive
COc1ccc(CCN(Cc2cc3cccc(C)c3[nH]c2=O)C(=O)NC2CCCCC2)cc1OC	inconclusive [inhibitor, single point]
COc1ccc(NC(=O)C(c2ccc(OC)cc2)N(C)C(=O)CNC(C)=O)cc1 (stereo unspecified)	inactive
COCCN(CCOC)c1ncnc2c1cnn2-c1ccccc1	inactive
NS(=O)(=O)c1ccc(CNC(=O)c2cc(-c3ccccn3)nc3ccc(Cl)cc23)cc1	active: 12.6 µM
CCOC(=O)CN(C(=O)CSc1nnc(CNc2ccc(F)cc2)n1CC)c1ccc(F)cc1	inconclusive [inhibitor, partial curve, poor fit]
c1ccc(-c2nc(-n3nc4ccccc4n3)nc3ccccc23)cc1	inconclusive [inhibitor, partial curve]
COC(=O)c1cnn(-c2ccc(F)cc2F)c1/C=N/NC(N)=S	inactive
Cc1ccc2nc3ccc(N4CCCCCCC4)nn3c(=O)c2c1	inconclusive [inhibitor, full curve, poor fit]
COc1ccc(CCNC(=O)CN2CCN(c3ccccc3Cl)CC2)cc1	inactive
Cc1cccc(-n2c(-c3csc(C)c3)n[nH]c2=S)c1	inactive
CCCCNC(=O)c1sc(=S)n(-c2ccccc2OC)c1N	inactive
Cc1ccc(-c2nc(CN3CCCCC3CCN3CCCC3=O)c(C)o2)o1 (stereo unspecified)	inactive
CCOC(=O)c1c(NC(=O)Nc2ccccc2)sc(C)c1C	inconclusive [inhibitor, partial curve]
S=C(NC1CCCCC1)N1CCOCC1	inactive
O=c1c2cc(Br)ccc2nc(-c2ccc([N+](=O)[O-])cc2)n1O	inactive
